{"source": "PubChem BioAssay AID686979", "about": "(National Center for Advancing Translational Sciences (NCATS), 2013)", "note": "Hit rate of the full screen: of about 420,000 compounds, about 50,000 (12%) were called active. The shares of active, inactive and inconclusive entries below differ from those in the screen. The call rests on the fitted dose curve; in most records, active means well fitted inhibition curve with a large enough effect; inconclusive means small, poorly fitted or top-dose-only effect; inactive means flat fitted curve, though single readings scatter. Potencies of inconclusive entries are left out as doubtful fits. On the % scale 0 is the no-effect control and ±100 the full control effect; potency means the concentration at half of the fitted maximal effect; tags describe the fitted curve by direction and shape.", "data": [{"experiment": "qHTS for Inhibitors of human tyrosyl-DNA phosphodiesterase 1 (TDP1): qHTS in cells in presence of CPT; further: nearly all actives have a fitted effect of over 55% in size", "conditions": "chicken DT40 Tdp1-/-;hTDP1 cells + 20 nM CPT, ATP luminescence, 48 h; activity change, negative = growth inhibition: at 46.2 µM (top of the series)", "in_short": "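Chicken DT40 Tdp1-/- cells stably complemented with human TDP1 were seeded at 400 cells/well in medium containing 20 nM camptothecin, exposed to pin-transferred compounds, and grown at 37 °C for at least 48 hr. Viability was read as ATP luminescence.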", "values": [{"compound": "COc1ccccc1CCN=C(N)NS(=O)(=O)c1cc(F)ccc1F", "Potency": "inconclusive [inhibitor, single point]"}, {"compound": "COc1ccc(Nc2nc3ccccc3c(=O)[nH]2)cc1", "Potency": "inconclusive [inhibitor, single point]"}, {"compound": "CCN(CC)c1ccc(/C=C2/C(=O)c3ccc(C(=O)O)cc3C2=O)cc1", "Potency": "inactive"}, {"compound": "COc1ccc(Nc2nc3cc(-c4sccc4C)sc3c(=O)n2C)cc1OC", "Potency": "active: 1.3 µM"}, {"compound": "O=C(NCCN1CCN(Cc2ccccc2)CC1)Nc1cc(Cl)cc(Cl)c1", "Potency": "inconclusive [inhibitor, single point]"}, {"compound": "NS(=O)(=O)c1ccc(NC(=O)COc2cccc3ccccc23)cc1", "Potency": "inactive"}, {"compound": "COc1ccc(C2(CNC(=O)c3ccc(N)cc3)CCCC2)cc1", "Potency": "inactive"}, {"compound": "CCCCNS(=O)(=O)c1ccc(C)c(-c2nnc3c4ccccc4c(C)nn23)c1", "Potency": "inconclusive [inhibitor, single point]"}, {"compound": "Cc1ccc(Sc2nc(-c3ccccc3)nnc2C(F)(F)F)cc1", "Potency": "active: 20.6 µM"}, {"compound": "O=C(/C(=C/O)N=Nc1ccccc1)c1cccs1", "Potency": "inconclusive [inhibitor, single point]"}, {"compound": "Cc1ccc2[nH]c3c(c2c1)CN(C(C)C)CC3", "Potency": "inconclusive [inhibitor, single point]"}, {"compound": "Cc1cccc(N2C(=O)C(Oc3ccc(Cl)cc3Cl)C2C(=O)O)c1C", "note": "(stereo unspecified)", "Potency": "inconclusive [inhibitor, single point]"}, {"compound": "NC(=O)CC(NC(=O)c1ccccc1)c1ccc(NCc2ccc(F)c(F)c2)c([N+](=O)[O-])c1", "note": "(stereo unspecified)", "Potency": "inconclusive [inhibitor, single point]"}, {"compound": "CN(C)c1ccnc2sc3c(NCC(O)CO)ncnc3c12", "note": "(stereo unspecified)", "Potency": "inactive"}, {"compound": "Cc1nc(C(=O)NNC(=O)c2ccc(Cl)cc2)cs1", "Potency": "active: 16.4 µM"}, {"compound": "Cc1cc(C)cc(OCC(=O)N2N=C(c3cccnc3)CC2(O)C(F)(F)F)c1", "note": "(stereo unspecified)", "Potency": "inconclusive [inhibitor, single point]"}, {"compound": "CCN(Cc1ccccc1)C(=O)C1CCN(Cc2ccc(SC)cc2)CC1", "Potency": "inconclusive [inhibitor, single point]"}, {"compound": "CC(=O)Nc1ccc(S(=O)(=O)N2CCN(C(=O)c3ccco3)CC2)cc1", "Potency": "inactive"}, {"compound": "COc1ccc2cc(C(c3nnnn3Cc3ccccc3)N3CCCCCC3)c(=O)[nH]c2c1", "note": "(stereo unspecified)", "Potency": "inconclusive [inhibitor, single point]"}, {"compound": "CCNc1ccc(C(=O)OCC(=O)NC(C)c2ccccc2)cc1[N+](=O)[O-]", "note": "(stereo unspecified)", "Potency": "inactive"}, {"compound": "CC(=O)N1CCc2cc(S(=O)(=O)NC(Cc3ccccc3)C(=O)NCc3ccc(C)cc3)ccc21", "note": "(stereo unspecified)", "Potency": "inconclusive [inhibitor, single point]"}, {"compound": "COc1cc(C(=O)Nc2cccc3cccnc23)cc(OC)c1OC", "Potency": "inconclusive [inhibitor, single point]"}, {"compound": "CCOC(=O)CSc1nc2sc3c(c2c(=O)n1-c1ccc(OCC)cc1)CCN(C)C3", "Potency": "inconclusive [inhibitor, single point]"}, {"compound": "O=C(NCc1cccs1)C1CCN(C(=O)N2CCOc3ccc(Cl)cc32)CC1", "Potency": "inconclusive [inhibitor, single point]"}, {"compound": "O=C(Nc1ccc(Br)cc1)c1ccc(F)c(S(=O)(=O)N2CCc3ccccc32)c1", "Potency": "active: 23.1 µM"}, {"compound": "CCCC[C@@H]1CN=C(N)N1CCCC", "Potency": "active: 9.2 µM"}, {"compound": "[O-]/[N+](=N\\Nc1ccc(Cl)cc1)c1ccccc1", "Potency": "inactive"}, {"compound": "COc1ccc(S(=O)(=O)N2CCC(C(=O)NCCC(=O)NCc3ccncc3)CC2)cc1", "activity change, negative = growth inhibition": "inconclusive: -13.7% [inhibitor]"}, {"compound": "COc1ccc(-n2c(-c3ccc(Cl)cc3Cl)n[nH]c2=S)c(OC)c1", "Potency": "inconclusive [inhibitor, single point]"}, {"compound": "Cc1cccc(-n2nc3c(c2NC(=O)CCCl)CSC3)c1", "Potency": "inconclusive [inhibitor, single point]"}, {"compound": "COc1ccc2occ(C(=O)c3ccccc3)c2c1", "Potency": "inactive"}, {"compound": "COc1ccc(/C=N/N=C2/CC(C)(C)Cc3n[nH]c(=O)cc32)cc1", "Potency": "inconclusive [inhibitor, partial curve, poor fit]"}, {"compound": "Cc1ccc(NC(=O)CN(C)CC(=O)Nc2ccccc2-c2ccccc2)cc1", "Potency": "inconclusive [inhibitor, partial curve]"}, {"compound": "COc1ccc(C(O)c2nc(-c3ccc(F)c(Cl)c3)cs2)cc1", "note": "(stereo unspecified)", "Potency": "inconclusive [inhibitor, single point]"}, {"compound": "CN1CC(=O)N2C(c3cccc([N+](=O)[O-])c3)c3[nH]c4ccccc4c3C[C@H]2C1=O", "note": "(stereo partly specified)", "Potency": "active: 1.03 µM"}, {"compound": "CC(C)N1CC2(c3ccccc3)CN(C(C)C)CC(c3ccccc3)(C1)C2=O", "Potency": "inconclusive [inhibitor, partial curve, poor fit]"}, {"compound": "CCCOc1nc2c(c(=O)n(C)c(=O)n2C)n1CCC", "Potency": "inconclusive [inhibitor, partial curve]"}, {"compound": "Nc1ccn(C[C@@H](CO)OCP(=O)(O)O)c(=O)n1", "Potency": "inactive"}, {"compound": "COc1cc(O)c(C(C)=O)c(OC)c1", "Potency": "inconclusive [inhibitor, single point]"}, {"compound": "CN1CCN(c2ccc(C(F)(F)F)cc2NC(=O)Nc2ccccc2)CC1", "Potency": "inconclusive [inhibitor, single point]"}, {"compound": "O=C(NCC(c1ccco1)N1CCCC1)c1cn(-c2ccccc2)nc1-c1ccc(F)cc1", "note": "(stereo unspecified)", "Potency": "active: 16.4 µM"}, {"compound": "COc1ccc(C(=O)NCc2ccc3[nH]c(C)cc3c2)cc1OC", "Potency": "inactive"}, {"compound": "COc1ccc(-c2nnn(CC(=O)N(Cc3ccccc3Cl)C(C(=O)NCC3CCCO3)c3ccco3)n2)cc1", "note": "(stereo unspecified)", "Potency": "inconclusive [inhibitor, single point]"}, {"compound": "CCOC(=O)C1(CC2CC2)CCN(C(=O)c2cc(C3CC3)nc3ccccc23)CC1", "Potency": "inconclusive [inhibitor, single point]"}, {"compound": "CCOC(=O)C(NC(=O)c1ccc(Cl)cc1Cl)(Nc1ccc(C)cc1)C(F)(F)F", "note": "(stereo unspecified)", "Potency": "active: 23.1 µM"}, {"compound": "Cc1ccc(S(=O)(=O)C(CNC(=O)C(=O)NCc2ccccc2C)c2cccs2)cc1", "note": "(stereo unspecified)", "Potency": "inconclusive [inhibitor, single point]"}, {"compound": "Cc1cc2cc(C(c3nnnn3CC3CCCO3)N3CCCc4ccccc43)c(=O)[nH]c2cc1C", "note": "(stereo unspecified)", "Potency": "inconclusive [inhibitor, single point]"}, {"compound": "CC(=O)Nc1ccc(S(=O)(=O)NCCC(=O)N2CCN(c3ccccc3Cl)CC2)cc1", "Potency": "active: 20.6 µM"}, {"compound": "CSc1nc(C)cc(SC(C(C)=O)C(=O)Nc2ccccc2)n1", "note": "(stereo unspecified)", "Potency": "inconclusive [inhibitor, full curve, poor fit]"}, {"compound": "Cc1ccc(-c2nc3ccccc3s2)cc1NC(=O)c1ccc2c(c1)OCO2", "Potency": "inconclusive [inhibitor, single point]"}, {"compound": "CC(OC(=O)c1cccs1)C(=O)NCCc1ccccc1", "note": "(stereo unspecified)", "Potency": "inactive"}, {"compound": "Cc1sc(NC(=O)Cc2ccc3c(c2)OCO3)nc1-c1ccc2c(c1)CCN2C(=O)c1cccc(F)c1", "Potency": "active: 11.6 µM"}, {"compound": "Cc1cccc(Cc2cnc(N3C(=N)SC(C)C3=O)s2)c1", "note": "(stereo unspecified)", "Potency": "inconclusive [inhibitor, single point]"}, {"compound": "OC(c1ccc(Cl)cc1)c1ncc(-c2ccc(Cl)cc2)[nH]1", "note": "(stereo unspecified)", "Potency": "inconclusive [inhibitor, single point]"}, {"compound": "CCOC(=O)c1ccc(NC(=O)CCn2ccc(C)n2)cc1", "Potency": "inactive"}, {"compound": "O=C(CCCN1C(=O)S/C(=C\\c2ccccc2)C1=O)NNC(=O)c1ccccc1O", "Potency": "active: 11.6 µM"}, {"compound": "CCn1c2ccccc2c2cc(/C=N/NC(=O)c3ccccc3C)ccc21", "Potency": "active: 2.59 µM"}, {"compound": "CC1CCC2(CC1)NC(=O)N(CC(=O)Nc1ccc3c(c1)CCC3)C2=O", "note": "(stereo unspecified)", "Potency": "inconclusive [inhibitor, single point]"}, {"compound": "Cc1onc(-c2ccccc2Cl)c1C(=O)N(Cc1ccc(N(C)C)cc1)C(C)C", "Potency": "inconclusive [inhibitor, single point]"}, {"compound": "Cc1ccc(/C(=N/Nc2nc3ccccc3s2)C2=C(O)c3ccccc3C2=O)cc1", "Potency": "inconclusive [inhibitor, single point]"}, {"compound": "NC(=S)N/N=C/c1cn(-c2ccccc2)nc1-c1cccnc1", "Potency": "active: 11.6 µM"}, {"compound": "O=C(C(=O)N1CCCCC1)c1c(-c2ccccc2)[nH]c2ccccc12", "Potency": "inactive"}, {"compound": "CC(C)OC(=O)c1c(-c2ccccc2)c(-c2ccccc2)nn(C)c1=O", "Potency": "inconclusive [inhibitor, single point]"}, {"compound": "COc1ccccc1C1C([N+](=O)[O-])=CC([N+](=O)[O-])=CN1C", "note": "(stereo unspecified)", "Potency": "inconclusive [inhibitor, single point]"}, {"compound": "Cc1cc(C(=O)N2CCN(c3ncccn3)CC2)c2cc(F)ccc2n1", "Potency": "inconclusive [inhibitor, single point]"}, {"compound": "CC(C)CCN(C(=O)Nc1ccccc1)C(C)c1cccs1", "note": "(stereo unspecified)", "Potency": "active: 20.6 µM"}, {"compound": "COc1ccc(-n2nc(C(=O)NCC(=O)N3CCC(C)CC3)c3ccccc3c2=O)cc1Cl", "Potency": "inconclusive [inhibitor, single point]"}, {"compound": "COc1cccc(NC(=O)CSc2nc(=O)n(Cc3ccncc3)c3c2CCC3)c1", "Potency": "inactive"}, {"compound": "CCOc1ncccc1C(=O)OCC(=O)Nc1cccc(S(=O)(=O)N2CCCCCC2)c1", "Potency": "inconclusive [inhibitor, single point]"}, {"compound": "CCC1CCCCN1CCCNC(=O)c1ccc(CS(=O)(=O)c2ccc(Br)cc2)o1", "note": "(stereo unspecified)", "Potency": "inactive"}, {"compound": "Cc1ccc(-c2cc(C(=O)NCCCn3ccnc3)c3ccccc3n2)s1", "Potency": "inactive"}]}]}
